Measured values reported in EP4610277A1 (Daiichi Sankyo Company, Limited, dated 2025).

target: T1, recombinant human KIR3DS1/CD158e2 Fc chimera protein (4136-KR-050, R&D Systems) (human, UniProt Q14943 22-340, limits assumed); assay: flow cytometry, KIR-Fc on scFv-K562 cells
T1 construct: Bought Fc chimera; also called soluble KIR3DS1; recombinant KIR3DS1
T1 sequence (Q14943 22-340 limits assumed, change not shown): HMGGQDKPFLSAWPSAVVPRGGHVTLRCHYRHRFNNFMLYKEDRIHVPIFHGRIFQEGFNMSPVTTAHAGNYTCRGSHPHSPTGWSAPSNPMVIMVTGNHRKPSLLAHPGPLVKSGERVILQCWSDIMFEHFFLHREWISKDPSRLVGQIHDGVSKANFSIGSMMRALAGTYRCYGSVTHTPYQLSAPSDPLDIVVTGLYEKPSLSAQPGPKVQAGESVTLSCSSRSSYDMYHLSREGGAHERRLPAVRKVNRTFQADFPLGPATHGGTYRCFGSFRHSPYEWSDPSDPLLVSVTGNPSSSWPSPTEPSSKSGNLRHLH

| binding result | Binder |
| --- | --- |
| no binding (tested: 0.1 µM) | membrane-type a3DL1-DS2 scFv (scFv, On K562 cells) scFv: DYKDDDDKGSGQVQLQQSGPGLVKPSQTLSLTCAISGDSVSSNSAAWNWIRQSPSRGLEWLGRTYYRSKWYNDYAVSVKSRITINPDTSKNQFSLQLNSMTPEDTAVYYCAREEGVSDAFDVWGQGTLVTVSSGGGGSGGGGSGGGGS[about 100 residues omitted][about 100 residues omitted] |
| no binding (tested: 0.1 µM) | membrane-type a3DL1-DS3 scFv (scFv, On K562 cells) scFv: DYKDDDDKGSGQVQLQQSGPGLVKPSQTLSLTCAISGDSVSSDSAAWNWIRQSPSRGLEWLGRTYYRSKWYNDYAVSVKSRITINPDTSKNQFSLQLNSVTPEDTAVYYCAREEGVSDAFDVWGQGTLVTVSSGGGGSGGGGSGGGGS[about 100 residues omitted][about 100 residues omitted] |
| no binding (tested: 0.1 µM) | membrane-type a3DL1-DS5 scFv (scFv, On K562 cells) scFv: DYKDDDDKGSGQVQLQQSGPGLVKPSQTLSLTCAISGDSVSSNSAAWNWIRQSPSRGLEWLGRTYYRSKWYNDYAVSVKSRITINPDTSKNQFSLQLNSVTPEDTAVYYCAREMGWYDWFDPWGQGTLVTVSSGGGGSGGGGSGGGGS[about 100 residues omitted][about 100 residues omitted] |
